The results in this text go back to publication PMC9911399, “Two distinct binding modes provide the RNA-binding protein RbFox with extraordinary sequence specificity”.

Changes are numbered by the printed parent chain; changes in the protein carry UniProt numbers. The list shows a part of the results.

T1: RBFOX1 RRM (Homo sapiens, UniProt Q9NWB1 109-208)
T1 sequence: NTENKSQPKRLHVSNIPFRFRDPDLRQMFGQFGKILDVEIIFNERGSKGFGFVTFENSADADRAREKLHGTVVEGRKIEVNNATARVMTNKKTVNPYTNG

B1: UCACGCU (DNA:RNA)
RNA: GGGAGACCGGAAUUCAGAUUGUCCUCACGCUUUAAAUCCCGUCGUAGCCACCA
DNA 1: CAATCTGAATTCCGGTCTCCC
DNA 2: TGGTGGCTACGACGGGATT
B2: CAAGCUU (DNA:RNA)
RNA: B1 RNA with U25C, C26A, C28G, G29C, C30U
DNA 1: CAATCTGAATTCCGGTCTCCC
DNA 2: TGGTGGCTACGACGGGATT
B3: GACCCUG (DNA:RNA)
RNA: B1 RNA with U25G, C26A, A27C, G29C, C30U, U31G
DNA 1: CAATCTGAATTCCGGTCTCCC
DNA 2: TGGTGGCTACGACGGGATT
B4: GAGGGGC (DNA:RNA)
RNA: B1 RNA with U25G, C26A, A27G, C28G, C30G, U31C
DNA 1: CAATCTGAATTCCGGTCTCCC
DNA 2: TGGTGGCTACGACGGGATT
B5: GAAAAGA (DNA:RNA)
RNA: B1 RNA with U25G, C26A, C28A, G29A, C30G, U31A
DNA 1: CAATCTGAATTCCGGTCTCCC
DNA 2: TGGTGGCTACGACGGGATT
B6: CUCUUGU (DNA:RNA)
RNA: B1 RNA with U25C, C26U, A27C, C28U, G29U, C30G
DNA 1: CAATCTGAATTCCGGTCTCCC
DNA 2: TGGTGGCTACGACGGGATT
B7: AAGACCA (DNA:RNA)
RNA: B1 RNA with U25A, C26A, A27G, C28A, G29C, U31A
DNA 1: CAATCTGAATTCCGGTCTCCC
DNA 2: TGGTGGCTACGACGGGATT
B8: CUCGCUA (DNA:RNA)
RNA: GGGAGACCGGAAUUCAGAUUGUCCCUCGCUAUUAAAUCCCGUCGUAGCCACCA
DNA 1: CAATCTGAATTCCGGTCTCCC
DNA 2: TGGTGGCTACGACGGGATT
B9: CGUUAAC (DNA:RNA)
RNA: B8 RNA with U26G, C27U, G28U, C29A, U30A, A31C
DNA 1: CAATCTGAATTCCGGTCTCCC
DNA 2: TGGTGGCTACGACGGGATT
B10: AGGAGAG (DNA:RNA)
RNA: B1 RNA with U25A, C26G, A27G, C28A, C30A, U31G
DNA 1: CAATCTGAATTCCGGTCTCCC
DNA 2: TGGTGGCTACGACGGGATT
B11: UUGUUGC (DNA:RNA)
RNA: B8 RNA with C25U, C27G, G28U, C29U, U30G, A31C
DNA 1: CAATCTGAATTCCGGTCTCCC
DNA 2: TGGTGGCTACGACGGGATT
B12: UGGCGCA (DNA:RNA)
RNA: B1 RNA with C26G, A27G, U31A
DNA 1: CAATCTGAATTCCGGTCTCCC
DNA 2: TGGTGGCTACGACGGGATT
B13: GGCGCCU (DNA:RNA)
RNA: B8 RNA with C25G, U26G, U30C, A31U
DNA 1: CAATCTGAATTCCGGTCTCCC
DNA 2: TGGTGGCTACGACGGGATT
B14: UGUGACA (DNA:RNA)
RNA: B8 RNA with C25U, U26G, C27U, C29A, U30C
DNA 1: CAATCTGAATTCCGGTCTCCC
DNA 2: TGGTGGCTACGACGGGATT
B15: AUACUUC (DNA:RNA)
RNA: B8 RNA with C25A, C27A, G28C, C29U, A31C
DNA 1: CAATCTGAATTCCGGTCTCCC
DNA 2: TGGTGGCTACGACGGGATT
B16: CAGUCGA (DNA:RNA)
RNA: B8 RNA with U26A, C27G, G28U, U30G
DNA 1: CAATCTGAATTCCGGTCTCCC
DNA 2: TGGTGGCTACGACGGGATT
B17: AAAGGAU (DNA:RNA)
RNA: B1 RNA with U25A, C26A, C28G, C30A
DNA 1: CAATCTGAATTCCGGTCTCCC
DNA 2: TGGTGGCTACGACGGGATT
B18: AGAUAGU (DNA:RNA)
RNA: B1 RNA with U25A, C26G, C28U, G29A, C30G
DNA 1: CAATCTGAATTCCGGTCTCCC
DNA 2: TGGTGGCTACGACGGGATT
B19: ACAACAU (DNA:RNA)
RNA: B1 RNA with U25A, C28A, G29C, C30A
DNA 1: CAATCTGAATTCCGGTCTCCC
DNA 2: TGGTGGCTACGACGGGATT
B20: CAUGCGG (DNA:RNA)
RNA: B8 RNA with U26A, C27U, U30G, A31G
DNA 1: CAATCTGAATTCCGGTCTCCC
DNA 2: TGGTGGCTACGACGGGATT
B21: CACGGCG (DNA:RNA)
RNA: B8 RNA with U26A, C29G, U30C, A31G
DNA 1: CAATCTGAATTCCGGTCTCCC
DNA 2: TGGTGGCTACGACGGGATT
B22: CCGCCCU (DNA:RNA)
RNA: B1 RNA with U25C, A27G, G29C
DNA 1: CAATCTGAATTCCGGTCTCCC
DNA 2: TGGTGGCTACGACGGGATT
B23: UCUAACU (DNA:RNA)
RNA: B1 RNA with A27U, C28A, G29A
DNA 1: CAATCTGAATTCCGGTCTCCC
DNA 2: TGGTGGCTACGACGGGATT
B24: UGGUUUU (DNA:RNA)
RNA: B1 RNA with C26G, A27G, C28U, G29U, C30U
DNA 1: CAATCTGAATTCCGGTCTCCC
DNA 2: TGGTGGCTACGACGGGATT
B25: GUGCUCU (DNA:RNA)
RNA: B1 RNA with U25G, C26U, A27G, G29U
DNA 1: CAATCTGAATTCCGGTCTCCC
DNA 2: TGGTGGCTACGACGGGATT
B26: UGAUACU (DNA:RNA)
RNA: B1 RNA with C26G, C28U, G29A
DNA 1: CAATCTGAATTCCGGTCTCCC
DNA 2: TGGTGGCTACGACGGGATT
B27: UAUGUAG (DNA:RNA)
RNA: B8 RNA with C25U, U26A, C27U, C29U, U30A, A31G
DNA 1: CAATCTGAATTCCGGTCTCCC
DNA 2: TGGTGGCTACGACGGGATT
B28: GCCGAAA (DNA:RNA)
RNA: B8 RNA with C25G, U26C, C29A, U30A
DNA 1: CAATCTGAATTCCGGTCTCCC
DNA 2: TGGTGGCTACGACGGGATT
B29: ACUAUAC (DNA:RNA)
RNA: B1 RNA with U25A, A27U, C28A, G29U, C30A, U31C
DNA 1: CAATCTGAATTCCGGTCTCCC
DNA 2: TGGTGGCTACGACGGGATT
B30: AUUGGCA (DNA:RNA)
RNA: B8 RNA with C25A, C27U, C29G, U30C
DNA 1: CAATCTGAATTCCGGTCTCCC
DNA 2: TGGTGGCTACGACGGGATT
B31: UCGACGC (DNA:RNA)
RNA: B1 RNA with A27G, C28A, G29C, C30G, U31C
DNA 1: CAATCTGAATTCCGGTCTCCC
DNA 2: TGGTGGCTACGACGGGATT

This experiment concerns the target T1, RBFOX1 RRM. Nature of the experiment: EMSA; HiTS-Eq, 1 nM pool, 10 min; buffer printed only for the single-RNA assays: 10 mM Tris pH 7.5, 150 mM NaCl, 3.4 mM EDTA, 0.001% NP-40, 30 C. The following applies: tags: His6 N-terminal (pET28a); label: 5' 32P. An outline of the steps:
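Purified RbFox RRM (wild type or mutant) was equilibrated for 10 min in 50 µL with 1 nM of a 5′-radiolabelled pool of RNA with 7 randomized nucleotides, its flanks annealed to DNA oligonucleotides, across increasing protein concentrations. Free RNA was separated by 8% native PAGE, excised, reverse-transcribed, PCR-barcoded and sequenced on an Illumina HiSeq 2500. Relative association constants came from read-count changes of each variant against the control reaction, normalised to the cognate motif.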
A general note: In EMSA bound probe runs differently from free probe, usually more slowly.
On to B1, for which the binding signal is 0.00491 KA relative to UGCAUGU.
Under B2 stands 0.00502 KA relative to UGCAUGU; under B3, 0.0142 KA relative to UGCAUGU.
Under B4 stands 0.0183 KA relative to UGCAUGU; under B5, 0.00682 KA relative to UGCAUGU; under B6, 0.012 KA relative to UGCAUGU.
Under B7 stands 0.000241 KA relative to UGCAUGU.
Take B8: the binding signal is 0.00606 KA relative to UGCAUGU.
Under B9 stands 0.00654 KA relative to UGCAUGU; under B10, 0.0161 KA relative to UGCAUGU.
As for B11, the figure is 0.0249 KA relative to UGCAUGU; as for B12, 0.0218 KA relative to UGCAUGU.
Under B13 stands 0.00816 KA relative to UGCAUGU; under B14, 0.00766 KA relative to UGCAUGU.
For the molecule B15, the binding signal is 0.00231 KA relative to UGCAUGU.
Take B16: the binding signal is 0.007 KA relative to UGCAUGU.
B17: the binding signal was 0.00514 KA relative to UGCAUGU.
Under B18 stands 0.0135 KA relative to UGCAUGU; under B19, 0.000895 KA relative to UGCAUGU.
On to B20, for which the binding signal was 0.00709 KA relative to UGCAUGU.
Under B21 stands 0.00873 KA relative to UGCAUGU; under B22, 0.00248 KA relative to UGCAUGU.
As for B23, the figure is 0.00261 KA relative to UGCAUGU; as for B24, 0.0278 KA relative to UGCAUGU.
For the molecule B25, the binding signal was 0.0226 KA relative to UGCAUGU.
Under B26 stands 0.0132 KA relative to UGCAUGU; under B27, 0.018 KA relative to UGCAUGU.
As for B28, the figure is 0.0107 KA relative to UGCAUGU.
As for B29, the figure is 0.00114 KA relative to UGCAUGU; as for B30, 0.0143 KA relative to UGCAUGU.
On to B31, for which the binding signal was 0.00828 KA relative to UGCAUGU.
